Our source for the nonsense suppression values is the RNAGym collection of RNA variant scans (doi:10.1101/gad.245936.114).

Variants at the floor of the assay are shown more often than the library holds them.

B1: tRNA (parent)
chain: CUCUCGGUAGCCAAGUUGGUUUAAGGCGCAAGACUUUAAUUUAUCACUACGAAAUCUUGAGAUCGGGCGUUCGACUCGCCCCCGGGAGAUUUUUUCCUCGAGCAA

Variants of B1 are the subject of this data set. Description: nonsense suppression (GFP-seq) (ratio to wild type); higher = more function; SUP4oc tRNA, yeast GFP reporter sort-seq. The essentials:
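Yeast were grown in raffinose/galactose medium with 80 mg/L adenine, each strain bearing a genome-integrated ochre-suppressor tRNA variant from a ~3% random-mutation library, a galactose-driven GFP ochre reporter, and RFP. After sorting into GFP/RFP bins, every bin was sequenced on an Illumina platform at phred ≥30. The GFPSEQ value, a measure of nonsense suppression, is the weighted bin median GFP/RFP relative to the unmutated parent tRNA, using each variant's estimated cell share per bin as the weight. Only variants with ≥100 reads and ≥30 cells were included.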
Take CUCUCGUUAGCGAAGUUGUUUUAAGGCGCAAGACUUUAAUUUAUCACUACGAAAUCUUGAGAUCGGUCGUUCGACUCGCCCCCGGGAGAUUUUUUCCUCGAGCAA [G7U C12G G19U G67U]: the nonsense suppression was ≤ 0.026. The figure for CUCUCGGUAGCCAAGUUGGCUUAAUGCGCAAGACUUUAAUUUAUCACUACGAAAUCUUGAGAUCCGGCGUUCGACUCGCCCCCGGGAGAUUUUUUCCUCGAGCAA [U20C G25U G65C] is ≤ 0.026; for CUAUCGGUAGCCAAGUUGGUUUAAGGCGCAAGACUUUAAUUUAUCACUACGAAAUCUUGAGAUCGCGCGUUCGACUCGCCCCCGGAAGAUUUUUUCCUCGAGCAA [C3A G66C G86A] it is ≤ 0.026; for CUCUCGGUAGCCAAGUUGGUUUAAGGCGUAAGACUUUAAUUUAUCACUACGAAAUCGUGAGAUCGGGCCUUCGACUCGCCCCCGGGAGAUUUUUUCCUCGAGCAA [C29U U57G G69C] it is ≤ 0.026. The figure for CUCUCGGUAGCCAAGUUGGUUUAACGCGCAAGACUUUAAUUUAUCACUACGAAAUCUUGAGAUCAGGCGUUCGACUCGCCCCCGGGAGAUUUUUUCCUCGAGCAA [G25C G65A] is ≤ 0.026; for CUCUCGGUAGCCAAGUUGGUUUACGGCGCAAGACUUUAAUUUAUCACUACGAAAUCUUGAGAUCGGGCGUUCGAUUCGCCGUCGGGAGAUUUUUUCCUCGAGCAA [A24C C75U C81G C82U] it is ≤ 0.026. The figure for CUCCCGGUAGCCAAGUUGGUUUAAGGCGCAAGACUUUAAUUUAUCACUACGAAAUCUUGAGAUCGGGCGUUCGACUUGCCCCCGGGAGAUUUUUUCCUCGAGCAA [U4C C77U] is ≤ 0.026; for CUCUCGGUAGCCAAGUUGGUUUAAGGCGCAAGACUUUAAUUUAUCACUACGAAAUUUUGAGAACGGGCGUUCGCCUCGCCACCGGGAGAUUUUUUCCUCGAGCAA [C56U U63A A74C C81A] it is ≤ 0.026. On to CUCUCGGUGGCCAAGUUGGUUUAAGGCGCAAGACUUUAAUUUAUCACUACGAAAUCUUGAGAUCGGGGGUGCGACUUGCCCCCGGGAGAUUUUUUCCUCGAGCAA [A9G C68G U71G C77U], for which the nonsense suppression is ≤ 0.026. For the variant CUCUCGGUAGCCAAGUUGGUUUAAGGCGCAAGACUUUAAUUUAUCACUACGAAAUCUUGGGAUCGUGCGUGCGACUCGCCCCCGGGAGAUUUUUUCCUCGAGCAA [A60G G66U U71G], the nonsense suppression is ≤ 0.026. To CUCUCGGCAGCCAAGUUGGUUUACGGCGCAAGACUUUAAUUUAUCACUACGAAAUCUGGAGAUCAGGCGUUCGACUCGCCCCCGGGAGAUUUUUUCCUCGAGCAA [U8C A24C U58G G65A] belongs ≤ 0.026; to CUCUUGGUAGCCAUGUUGGUUUAAGGCUCAAGACUUUAAUUUAUCACUACGAAAUCUUGAGAUCGGGCGUUCGACUCGCCCCCGGGAGAUUUUUUCCUCGAGCAA [C5U A14U G28U], ≤ 0.026. Turning to CUCCCGGUAGCCAAGUGGGUUUAAGGCGCAAGACUUUAAUUUAUCACUACGAAAUCUUGAGAUCGGACGUUCGACUCGCCCCCGGAAGAUUUUUUCCUCGAGCAA [U4C U17G G67A G86A], the nonsense suppression was ≤ 0.026. Consider CUCUCGGUAGCCAAAUUGGUUUAAGGCGCAAGAGUUUAAUUUAUCACUACGAAAUCUUGAGAUCGGGCGUUCGACUCGCCCCAGCGAGAUUUUUUCCUCGAGCAA [G15A C34G C83A G85C], for which the nonsense suppression is ≤ 0.026. For CUCUCGGAUGCCAAGUUGGUUUAAGGCGCAAGACUUUAAUUUAUCACUACGAAAUCUUGAGAUCGGGCGUUCGACUCGCCCUAGGGAGAUUUUUUCCUCGAGCAA [U8A A9U C82U C83A], the nonsense suppression was ≤ 0.026. On to CUCUCGGUAGCCAAGUUGGAUUAAGGCACAAGACUUUAAUUUAUCACUACGAAAUCUUGAGCUCGGGCGUUCGACUCGCCCCCGGGAGAUUUUUUCCUCGAGCAA [U20A G28A A62C], for which the nonsense suppression was ≤ 0.026. For the variant CUCUCGGUAGCCAAGUUGGUUUAUGGCGCAAGACUUUAAUUUAUCACUACGAAAUCUUGAGAUCGAGCGUUCGACUCGCCCCCGGGAGGUUUUUUCCUCGAGCAA [A24U G66A A89G], the nonsense suppression was ≤ 0.026.

Regarding CUCUCGGUAGCCAAGUUGGUUUAAGGCGCAAUAAUUUAAUUUAUCACUACGAAAUCUUGAGAUCGGGCGUUCGACUCGCCCCCGGGAGAUUUUUUCCUCGAGCAA [G32U C34A], the nonsense suppression is ≤ 0.026. To CUCUCGCCAGCCAAGUUGGCUUAAGGCGCAAGACUUUAAUUUAUCACUACGAAAUCUUGAGAUCGGGCGUUCGACUCGCCCCCGGGAGAUUUUUUCCUCGAGCAA [G7C U8C U20C] belongs ≤ 0.026; to CUCUCGGUAGCCAAGUGGGUUUAAGGCGCAAGACUUUAAUUUAUCACUACGAAAUCUUGAGAUCGCGCGUUCGACUCGCCCCCGGGAGAUUUUUUCCUCGAGCAA [U17G G66C], ≤ 0.026; to CUCUCGUUAGCCAAGUUGGUUUAAGGCGCAAGAAUUUAAUUUAUCACUACGAAAUCUUGCGAUCAUGCGUUCGACUCGCCCCCGCGAGAUUUUUUCCUCGAGCAA [G7U C34A A60C G65A G66U G85C], ≤ 0.026.

Regarding CUCUCGGUAGCCAAGUUGGUUUAAGGCGCAAGACUUUAAUUUAUCACUACGAAAUCUUGAGAUCGGGCGUACGACUCGCCGCCGGGAGAUUUUUUCCUCGAGCAA [U71A C81G], the nonsense suppression is ≤ 0.026. Take CUCUCGGUAGCUACGUUGGUUUAAGGCGCAAGAUUUUAAUUUAUCACUACGAAAUCUUGAGAUCGGGCGUUCGACUCGCCCCCGGGAGAUUUUUUCCUCGAGCAA [C12U A14C C34U]: the nonsense suppression is ≤ 0.026.

As for CUCUCGGUAGCCAAGUUUGUUUAAGGGGCAAGACAUUAAUUUAUCACUACGAAAUCUUGAGAUCGGGCGUUCGACUCGCCCCCGGGAGAUUUUUUCCUCGAGCAA [G18U C27G U35A], the nonsense suppression is ≤ 0.026.

CUCUCGGUAGCCAAGCUGGUUUAAGGCGCAAGACUUUAAUUUAUCACUACGAAAUCUUGAGAUCGGGCGUUCAACUCGCCCCCGGGAGAUUUUUUCCUCGAGCAA [U16C G73A]: the nonsense suppression turned out to be 1.22.

As to CUCUCGGUAGCCAAGUUGGUUUAAGGCGCAACACUUUAAUUUAUCACUACGAAAUCUUGGGAUCCGGCGUUCGACUCGCCCCCGGGAGAUUUUUUCCUCGAGCAA [G32C A60G G65C], the nonsense suppression is ≤ 0.026. As for CUCUCGGUAGCCAAGUUGGUUUAGGGCGCAAGACUUUAAUUUAUCACUACGAAAUCUGGUGAUCGGGCGUUCGACACGCCCCCGGGAGAUUUUUUCCUCGAGCAA [A24G U58G A60U U76A], the nonsense suppression is ≤ 0.026.
